Data: the supplement of paper PMC11283458
Structures can show the parent of a compound that is named as a salt. Some of the results follow. Most values come without repeats; read them as rough.

What was measured:
[1] = test system: Mef2d microexon dual Nano/Firefly luciferase splicing reporter in Neuro-2a cells; experiment: B-score of Firefly/Nano luminescence ratio, V1 Mef2d microexon reporter (B-score (plate-normalised)); higher = more Mef2d microexon inclusion; details: 24 h
[2] = test system: Mef2d microexon dual Nano/Firefly luciferase splicing reporter in Neuro-2a cells; experiment: B-score of Nano/Firefly luminescence ratio, V2 Mef2d microexon reporter (B-score (plate-normalised)); higher = more Mef2d microexon inclusion; details: 24 h
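Throughout, for B-score of Nano/Firefly luminescence ratio, V2 Mef2d microexon reporter: compounds at 4 µM (PKI library 0.5 µM) on Dox-inducible N2A Flp-In cells with PEST-tagged luciferases, 384-well plates, B-score from per-plate median-polish residual over median absolute residual.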

| Structure (SMILES) | B-score [1] | B-score [2] |
| --- | --- | --- |
| O=C1C=CC(=O)N1c1ccc(I)cc1Cl (4 µM) | 13.7 | 1.79 |
| CN(C)c1ccc(-n2nnnc2SCc2ccc(Cl)cc2)cc1 (4 µM) | -9.11 | -12.6 |
| Cc1cc(C)c(N(Cc2ccccc2)S(=O)(=O)c2ccc(OCCNC(=O)c3cc4ccccc4o3)cc2)c(C(=O)NO)c1 (4 µM) | 3.81 | 9.02 |
| CC[C@H](C)[C@H]1O[C@]2(CC[C@@H]1C)C[C@@H]1C[C@@H](CC=C(C)[C@@H](O[C@H]3C[C@H](OC)[C@@H](O[C@H]4C[C@H](OC)[C@@H](O)[C@H](C)O4)[C@H](C)O3)[C@@H](C)C=CC=C3CO[C@@H]4[C@H](O)C(C)=C[C@@H](C(=O)O1)[C@]34O)O2 [Ivermectin] (4 µM) | 9.67 | 5 |
| O=S(=O)(Nc1ccc(-n2nc(C(F)(F)F)cc2C(F)(F)F)cc1)c1ccc(Cl)c(Cl)c1 (4 µM) | 5.71 | 4.97 |
| CCc1cc2c(=O)c(-c3nc4ccccc4n3C)c(C)oc2cc1O (4 µM) | -8 | -10.5 |
| C=Cc1nc2c(cnn2-c2ccccc2)c(=O)[nH]1 (4 µM) | -1.83 | -5.32 |
| N#Cc1c(-c2ccccc2)c(-c2ccccc2)nn(CC(=O)NNC(=S)Nc2ccccc2)c1=O (4 µM) | -1.14 | -5.53 |
| CC1=C(/C=C/C(C)=C/C=C/C(C)=C/C(=O)Nc2ccc(O)cc2)C(C)(C)CCC1 [Fenretinide] (4 µM) | 9.29 | 2.84 |
| Cc1ccc2c(=O)c3ccccc3n(CCCN)c2c1C (4 µM) | -12.7 | -18.8 |
| O=C(Nc1ccccc1)O/N=C(\Nc1ccc(OC(F)(F)F)cc1)c1c(Cl)cccc1Cl (4 µM) | 1.35 | 12 |
| O=S(=O)(NCc1ccccn1)c1ccc(S(=O)(=O)c2ncc(C(F)(F)F)cc2Cl)s1 (4 µM) | 12.8 | 7.8 |
| COc1ccc(NC(=O)c2cc(-c3ccccc3)n(-c3ccccc3)c2C)cc1 (4 µM) | -5.99 | -16 |
| COC(=O)Nc1nc2cc(C(=O)c3ccccc3)ccc2[nH]1 [Mebendazole] (4 µM) | -6.07 | -17.2 |
| O=C(Nc1ccc(-n2nc(C(F)(F)F)cc2-c2cccs2)cc1)c1cccs1 (4 µM) | 28.3 | 4.21 |
| Cc1onc(-c2c(Cl)cccc2Cl)c1C(=O)ON=C(c1ccc(F)cc1)C1CC1 (4 µM) | 3.29 | 4.49 |
| Cc1ccc(NC(=O)C(C)NC(=O)c2cccc(C)c2)nc1 (stereo not given) (4 µM) | -4.44 | -13.4 |
| S=C(NCc1cccnc1)SCc1cc(Cl)sc1Cl (4 µM) | -0.169 | -8.36 |
| N#Cc1sc(SCc2ccccc2)c2c1CC(c1ccccc1)CC2=O (stereo not given) (4 µM) | -1.49 | -9.21 |
| COc1ccccc1C1(O)CCN(CCCn2c3ccccc3c3ccccc32)CC1 [NNC 05-2090 hydrochloride] (4 µM) | 2.91 | 5.17 |
| CCc1cnn2c(NCc3ccc[n+]([O-])c3)cc(N3CCCC[C@H]3CCO)nc12 (0.5 µM) | -5.23 | -5.07 |
| CC(C)c1ccc(NC(=O)CSc2nnc(-c3cc(OCC(F)(F)F)ccc3OCC(F)(F)F)o2)cc1 (4 µM) | 4.09 | 3.76 |
| Cc1nc(C(N)=NOC(=O)c2c(-c3ccccc3)noc2C)cs1 (4 µM) | 5.14 | 2.78 |
| CC(C)(C)NC(=S)NN=CC=NNC(=S)NC(C)(C)C (4 µM) | 3.85 | 19.8 |
| CC1(C)COC(/C=C/c2cccc([N+](=O)[O-])c2)=N1 (4 µM) | -2.32 | -4.59 |
| Cc1cc(Nc2cc(CN3CCOCC3)c3nc(C)c(Cc4ccc(Cl)cc4F)n3n2)n[nH]1 (0.5 µM) | 9.06 | 9.85 |
| Ic1ccc(N2CCN(Cc3c[nH]c4ncccc34)CC2)cc1 [L-750,667 trihydrochloride] (4 µM) | 6.26 | 3.16 |
| NC(CCS(=O)(=O)c1ccc(Cl)cc1)=NOC(=O)c1ccccc1C(F)(F)F (4 µM) | 6.5 | 8.3 |
| COc1cc(N2CCC(N3CCN(C)CC3)CC2)ccc1Nc1ncc(Cl)c(Nc2ccccc2S(=O)(=O)C(C)C)n1 (0.5 µM) | -3.63 | -4.26 |
| N#CC1(C#N)C(c2ccc(Br)s2)C(C(=O)c2ccccc2)N2c3ccccc3C=CC21 (stereo not given) (4 µM) | -5.7 | -8.82 |
